# Test results: PubChem BioAssay (NCATS)
# Several values for one entry are separate records, joined by “and”; a condition that tells them apart may be missing. Equal values may be shown once. Inconclusive results, whose numbers are uncertain, are shown with a selection of clear calls. For some of these results: Where the call is inconclusive, the potency comes from a doubtful curve fit. Some compounds were tested as several samples or in several runs, with calls that do not always agree. Activity calls are given as the source filed them. The call rests on the fitted dose curve; in most records, active means well fitted inhibition curve with a large enough effect; inconclusive means small, poorly fitted or top-dose-only effect; inactive means flat fitted curve, though single readings scatter.
# Key:
# CRL-7250 = normal cell line; assay: Cytotoxic Profiling of Annotated Libraries Using Quantitative High-Throughput Screening (AID 1296008); conditions: Five cell lines viability, CellTiter-Glo ATP luminescence, 48-72 h; max response: active compounds read low; on max response: on the % scale 0 is the no-effect control and ±100 the full control effect
# How it was run: (§1)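 Cytotoxicity was measured as CellTiter-Glo ATP luminescence, read after 10 min at room temperature. Compound treatment of the cells lasted 48 or 72 hr at 37 degrees Celsius in a qHTS format.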
# HEK293 = assay: as above; conditions: Five cell lines viability, CellTiter-Glo ATP luminescence, 48-72 h; max response: active compounds read low
# How it was run: as §1
# ICS = assay: qHTS profiling for inhibitors of Plasmodium falciparum proliferation (AID 504749); conditions: P. falciparum in erythrocytes, SYBR Green DNA, 72 h; series mostly up to 28.7 µM
# How it was run: (§2)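 Infected RBCs, 0.3% parasitemia/2.5% Hct final; cpd 72 h, 37 C, 5% CO2; lysis buffer with saponin/triton/SYBR Green I, o/n RT dark; FI 485/535; norm. to artemisinin (0.29 uM) and DMSO.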
# P94_40 = assay: as above; conditions: P. falciparum in erythrocytes, SYBR Green DNA, 72 h; series mostly up to 28.7 µM
# How it was run: as §2
# TAB113 = assay: as above; conditions: P. falciparum in erythrocytes, SYBR Green DNA, 72 h; series mostly up to 28.7 µM
# How it was run: as §2
# TAB165 = assay: as above; conditions: P. falciparum in erythrocytes, SYBR Green DNA, 72 h; series mostly up to 28.7 µM
# How it was run: as §2
# W2 = assay: as above; conditions: P. falciparum in erythrocytes, SYBR Green DNA, 72 h; series mostly up to 28.7 µM
# How it was run: as §2
# P93_24 = assay: as above; conditions: P. falciparum in erythrocytes, SYBR Green DNA, 72 h; series mostly up to 28.7 µM
# How it was run: as §2
# PAD = assay: as above; conditions: P. falciparum in erythrocytes, SYBR Green DNA, 72 h; series mostly up to 28.7 µM
# How it was run: as §2
# PC15 = assay: as above; conditions: P. falciparum in erythrocytes, SYBR Green DNA, 72 h; series mostly up to 28.7 µM
# How it was run: as §2
# PC26 = assay: as above; conditions: P. falciparum in erythrocytes, SYBR Green DNA, 72 h; series mostly up to 28.7 µM
# How it was run: as §2
# HB3 = assay: as above; conditions: P. falciparum in erythrocytes, SYBR Green DNA, 72 h; series mostly up to 28.7 µM
# How it was run: as §2
# HaCat = assay: Cytotoxic Profiling of Annotated Libraries Using Quantitative High-Throughput Screening (AID 1296008); conditions: Five cell lines viability, CellTiter-Glo ATP luminescence, 48-72 h; max response: active compounds read low; on max response: on the % scale 0 is the no-effect control and ±100 the full control effect
# How it was run: as §1
# Further: nearly all actives have a fitted effect of over 60% in size.
# Potency means the concentration at half of the fitted maximal effect; tags describe the fitted curve by direction and shape.
structure (smiles),measurement,setting,value
CC1(C)CC(=O)c2c(C(F)(F)F)nn(-c3ccc(C(N)=O)c(NC4CCC(O)CC4)c3)c2C1 (stereo not given),Potency,CRL-7250,active: 0.259 µM
same,Potency,HEK293,active: 52.6 nM and active: 58 nM
Fc1ccc([C@@H]2CCNC[C@H]2COc2ccc3c(c2)OCO3)cc1,Potency,CRL-7250,"inconclusive: 2.64 µM [inhibitor, full curve, poor fit]"
same,Potency,HEK293,"inconclusive: 29.9 µM [inhibitor, single point]"
Cc1cnc(Nc2cccc(CN3CCOCC3)c2)nc1Nc1cccc(S(=O)(=O)NC(C)(C)C)c1,Potency,CRL-7250,"inconclusive: 4.61 µM [inhibitor, single point]"
same,Potency,HEK293,"inconclusive: 1.16 µM [inhibitor, partial curve, poor fit]"
O=C(Nc1cccc(Cl)c1)Nc1ncc(CCNc2ncnc3ccsc23)s1,Potency,CRL-7250,"inconclusive: 23.5 µM [inhibitor, partial curve]"
same,Potency,HEK293,active: 16.6 µM
CC(C)(O)CCc1ccc(OCc2cc(-c3cccc(OC(F)F)c3)c3ncccc3c2)cc1,Potency,CRL-7250,"inconclusive: 11.8 µM [inhibitor, single point]"
same,Potency,HEK293,"inconclusive: 29.1 µM [inhibitor, single point]"
CNC(=O)c1ccc(N2C(=S)N(c3ccc(C#N)c(C(F)(F)F)c3)C(=O)C2(C)C)cc1F,Potency,CRL-7250,"inconclusive: 11.8 µM [inhibitor, single point]"
same,max response,HEK293,inactive: -4.81%
CCOc1cc(C(=O)Nc2ccc(Cl)c(-c3nc4ccccc4[nH]3)c2)cc(OCC)c1OCC,Potency,CRL-7250,"inconclusive: 37.2 µM [inhibitor, single point]"
same,Potency,HEK293,"inconclusive: 20.6 µM [inhibitor, single point]"
CC1(O)CC(c2nc(-c3ccc4ccc(-c5ccccc5)nc4c3)c3c(N)nccn23)C1 (stereo not given),Potency,CRL-7250,active: 11.8 µM
same,Potency,HEK293,"inconclusive: 18.4 µM [inhibitor, single point]"
COc1cccc(N(C)C(=S)Oc2ccc3c(c2)CCCC3)n1,Potency,ICS,"inconclusive: 12.6 µM [inhibitor, single point]"
same,Potency,P94_40,"inconclusive: 17.8 µM [inhibitor, single point]"
same,Potency,TAB113,"inconclusive: 10 µM [inhibitor, single point]"
same,Potency,TAB165,"inconclusive: 17.8 µM [inhibitor, single point]"
same,Potency,W2,"inconclusive: 15.1 µM [inhibitor, single point]"
same,Potency,CRL-7250,"inconclusive: 33.5 µM [inhibitor, single point]"
same,outcome,CRL-7250,inactive
same,Potency,HEK293,"inconclusive: 29.9 µM [inhibitor, single point]"
O=C(Nc1cccc2c(=O)cc(-c3nn[nH]n3)oc12)c1ccc(OCCCCc2ccccc2)cc1,Potency,CRL-7250,"inconclusive: 8.33 µM [inhibitor, full curve, poor fit]"
same,Potency,HEK293,active: 18.7 µM
COCCCOc1ccnc(CS(=O)c2nc3ccccc3[nH]2)c1C (stereo not given),Potency,ICS,"inconclusive: 14.1 µM [inhibitor, single point]"
same,Potency,P93_24,"inconclusive: 11.2 µM [inhibitor, single point]"
same,Potency,PAD,"inconclusive: 14.1 µM [inhibitor, single point]"
same,Potency,PC15,inactive
same,Potency,PC26,active: 19 µM
same,Potency,TAB165,"inconclusive: 12.6 µM [inhibitor, partial curve, poor fit]"
same,Potency,W2,active: 1.07 µM
same,Potency,CRL-7250,"inconclusive: 23.7 µM [inhibitor, single point]"
same,outcome,CRL-7250,inactive
same,Potency,HEK293,"inconclusive: 29.9 µM [inhibitor, single point] and inconclusive: 29.1 µM [inhibitor, single point]"
O=C(Nc1ncc(SCCN2CCCC2)s1)[C@]1(c2ccc(S(=O)(=O)C3CC3)cc2)C[C@@H]1C1CCCCC1,Potency,CRL-7250,"inconclusive: 33.2 µM [inhibitor, single point]"
same,Potency,HEK293,active: 16.6 µM
CN(C)CC(=O)N1CCC(c2ccc(NC(=O)c3ncc(C#N)[nH]3)c(C3=CCCCC3)c2)CC1,Potency,CRL-7250,"inconclusive: 29.1 µM [inhibitor, single point]"
same,Potency,HEK293,"inconclusive: 11.8 µM [inhibitor, single point]"
CN1CCC[C@H]1CCO[C@](C)(c1ccccc1)c1ccc(Cl)cc1,Potency,CRL-7250,"inconclusive: 37.2 µM [inhibitor, single point]"
same,Potency,HEK293,"inconclusive: 33.2 µM [inhibitor, single point]"
CC(C)(N)C(=O)N[C@H](COCc1ccccc1)C(=O)N1CCC2(CC1)CN(S(C)(=O)=O)c1ccccc12,Potency,CRL-7250,"inconclusive: 29.1 µM [inhibitor, single point]"
same,Potency,HEK293,"inconclusive: 20.6 µM [inhibitor, single point]"
COc1cc2nc(N(C)CCCNC(=O)C3CCCO3)nc(N)c2cc1OC (stereo not given),Potency,CRL-7250,"inconclusive: 21.1 µM [inhibitor, single point]"
same,Potency,HEK293,"inconclusive: 29.9 µM [inhibitor, single point]"
CN(C)CCCC1(c2ccc(F)cc2)OCc2cc(C#N)ccc21 (stereo not given),Potency,CRL-7250,"inconclusive: 8.33 µM [inhibitor, full curve]"
same,Potency,HEK293,"inconclusive: 25.9 µM [inhibitor, single point]"
Cc1[nH]c(C=C2C(=O)Nc3ccc(S(=O)(=O)N(C)c4cccc(Cl)c4)cc32)c(C)c1C(=O)N1CCN(C)CC1,Potency,CRL-7250,"inconclusive: 23.5 µM [inhibitor, single point]"
same,Potency,HEK293,active: 5.26 µM
NS(=O)(=O)c1cc(Cl)c(Cl)c(S(N)(=O)=O)c1,Potency,HB3,inactive
same,max response,CRL-7250,inactive: 0.0999%
same,outcome,CRL-7250,inactive
same,max response,HaCat,inactive: -2.36%
same,outcome,HaCat,inactive
